Data: ChEMBL document CHEMBL4888484, “Replenishing the malaria drug discovery pipeline: Screening and hit evaluation of the MMV Hit Generation Library 1 (HGL1) against asexual blood stage Plasmodium falciparum ,using a nano luciferase reporter read-out” (2022)
In all, about 150,000 compounds went through this assay and about 540 (0.36%) showed an effect of 50% or more. Some of the results follow. Where a SMILES comes first, the peptide text is derived from it. [ ]: non-standard residue; d: D form. The star is where a group is joined. Boc = CC(C)(C)OC(=O)*

Test system: Plasmodium falciparum
Test: Primary screen in NF54 nanoGlo assay, in single point, at 2uM, 72h; a lower Z score goes with more inhibition
Format: functional, Erythrocyte
Details: timepoint 72 hour

Row | SMILES | % Inhibition | Z score
1 | Cc1ncc(C(=O)NCCc2nnc(N)s2)cn1 | 2% | -0.28
2 | CN1CCN(S(=O)(=O)c2ccc(Cl)s2)C[C@]12CCNC(=O)CC2 | -2% | 0.41
3 | Cc1cccc(N(C)C(=O)Cc2cccs2)n1 | -2% | 0.49
4 | NC(=O)C1C(=O)N(CCc2ccco2)C23CCOCC2C1c1ccccc1O3 (centres undefined) | -9% | 1.72
5 | Cc1ccc(S(=O)(=O)N2CCC(C(=O)OCC(=O)N3CC(=O)Nc4ccccc43)CC2)cc1 | -2% | 0.3
6 | CC(C)(C)c1cc(-c2cc(C(C)(C)C)n(-c3ccccc3)n2)nn1-c1ccccc1 | -1% | 0.08
7 | CCOc1cccc(C(=O)Nc2ccc(N3CCOCC3)c(NC(=O)c3cccc(OCC)c3)c2)c1 | -7% | 1.39
8 | O=S(=O)(N[C@H]1[C@H](O)[C@H](O)C[C@@H]1c1cncnc1)c1ccc(Cl)cc1 | -11% | 1.65
9 | CC(C)(C)OC(=O)N[C@H](Cc1ccccc1)C(=O)N1CCC[C@@H]1C(=O)O (Boc-[dF]-[dP]-OH) | -7% | 0.85
10 | CCN(CC)CCN(CC(O)COCc1ccc2c(c1)OCO2)CC(O)COCc1ccc2c(c1)OCO2 (centres undefined) | -14% | 1.5
11 | Cc1cnc(N2CCOCC2C)nc1N1CCOCC1C (centres undefined) | -5% | 0.98
12 | Nc1nc(-c2ccc3c(c2)OCCO3)n[nH]1 | 5% | -1.04
13 | O=C(CCN1CCOc2ccc(CO)cc2C1)Nc1ccc2c(c1)CCC2 | 6% | -0.97
14 | Cc1cccc(NC(=O)CC(=O)NCCN2CCC[C@H](O)C2)c1C | -10% | 1.74
15 | CC(CCc1ccccc1)NC(=O)C(c1cccnc1)C(C)C (centres undefined) | 30% | -3.38
16 | O=C(CN1CCN(S(=O)(=O)c2cccc(F)c2)CC1)c1ccco1 | -12% | 2.25
17 | Cc1cccc2c1OC[C@@H](NS(=O)(=O)CC1(C#N)CCCC1)C2 | -7% | 0.78
18 | COc1ccc(Br)cc1[C@H]1CC(=O)Nc2c1c(C)nn2-c1nc2ccccc2[nH]1 | 5% | -0.58
19 | Cc1nccc(N2CCN(c3nccn3C)CC2)n1 | -7% | 1.34
20 | O=S1(=O)CCN(Cc2ccncc2Cl)[C@H](C2CC2)C1 | 1% | -0.07
21 | CCS(=O)(=O)N1CCC[C@H](Oc2ccncn2)C1 | -2% | 0.28

Row | SMILES | % Inhibition | Z score
22 | COc1ccc(-c2cc(C(=O)N3CCc4nnc(C)n4CC3)[nH]n2)cc1 | 4% | -0.53
23 | CCc1cc(C(=O)N(C)[C@@H](CO)C(C)(C)C)[nH]n1 | 5% | -0.72
24 | CCC[C@H](NCc1csc(N(C)C)n1)c1ncccc1Cl | -15% | 2.06
25 | O=C(NC[C@H]1COCCO1)NC1CCCCCCC1 | -3% | 0.35
26 | CCc1nc(C)sc1CNC(=O)CC[C@@H]1CCCN2CCCC[C@H]12 | 10% | -0.93
27 | COCC(=O)N1CCC2(CCC(N(C)Cc3ccncc3C)CC2)CC1 | 0% | -0.02
28 | COc1cccc(C(=O)N[C@H]2CCc3c(cnc4cc(C)nn34)C2)c1 | 6% | -0.76
29 | Fc1ccc(CN2CCOC[C@H](Oc3ccc(C(F)(F)F)cn3)C2)cc1 | -7% | 1.08
30 | O=C(c1ccoc1)N1C2CCC1CC(S(=O)(=O)c1ccccc1)C2 (centres undefined) | -6% | 0.75
31 | Cc1ccc(NC(=O)Nc2c(Cl)cccc2Cl)c2c1CC(C)(C)O2 | -2% | 0.17
32 | COCC(=O)N1CCC(Cn2ccc3cccnc32)CC1 | -2% | 0.33
33 | COc1ccc([C@@]2(O)c3c(ccc(CC=C(C)C)c3O)NC(=O)[C@@H]2OC)cc1 [PENIPREQUINOLONE] | 29% | -3.26
34 | CCOC(=O)[C@H]1NCCN[C@H]1C(=O)OCC | -12% | 1.4
35 | Cc1cc(CNc2[nH]nnc2C)c(C)s1 | -45% | 5.23
36 | COc1ccc(-c2cc3n(n2)CCC(=O)N3Cc2ccc(C(=O)NCCN3CCCCC3)cc2)cc1 | 10% | -1.2
37 | O=C(COc1ccc2c(C(F)(F)F)cc(=O)n(CC3CCC3)c2c1)Nc1ccccc1F | 14% | -2.03
38 | Cc1cc(Cn2ccnc2-c2cccc3nonc23)on1 | 6% | -0.98
39 | O=C(C#Cc1ccccc1)N1CCC(OC[C@H]2CCCO2)CC1 | 4% | -0.62
40 | Cc1ccc(S(=O)(=O)Nc2cc(C(=O)O)ccc2N2CCC(N3CCCCC3)CC2)c(C)c1 | -2% | 0.2
41 | CCC(CC)C(=O)N[C@@H]1COCC[C@@H]1Oc1cccc(F)c1 | 5% | -0.69
42 | COc1ccc(NC(=O)N[C@H]2CCN(c3cc(N4CCCC4)cnn3)C2)c(C)c1 | 1% | -0.19
